# The other results are listed elsewhere or left out. The full chains were built here from the parent and the listed change. Inactive controls read about 0.05.
# B1: TEV protease; numbered along this chain (parent)
# chain: MGESLFKGPRDYNPISSSICHLTNESDGHTTSLYGIGFGPFIITNKHLFRRNNGTLVVQSLHGVFKVKDTTTLQQHLVDGRDMIIIRMPKDFPPFPQKLKFREPQREERICLVTTNFQTKSMSSMVSDTSCTFPSGDGIFWKHWIQTKDGQCGSPLVSTRDGFIVGIHSASNFTNTNNYFTSVPKNFMELLTNQEAQQWVSGWRLNADSVLWGGHKVFMVKPEEPFQPVKEATQL
# Variants of: B1
# Assay: raw area under fraction-flipped curve 0-4 h after induction (AUC4h, not background-subtracted), DNA-recorder readout of cleavage of the substrate (dimensionless); higher = more cleavage of the substrate by the protease variant
# Conditions: temperature: 34 °C; time window: 0-4 h after rhamnose induction
# Protocol: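 In vivo DNA recorder in E. coli TOP10(DE3) ΔrhaA at 34 °C. Each TEVp single-site mutant (parent TEVp 0) is paired with a single-site variant of the 7-mer TEVs (canonical ENLYFQ|S). The substrate sits between flexible linkers in a Bxb1-sfGFP-TEVs-SsrA fusion, so cleavage stabilises Bxb1 and speeds flipping of a recombination array, read by NGS. The value is the raw area under the fraction-flipped curve over 0-4 h after rhamnose induction (AUC4h), with ≥20 reads per time point. It is not background-subtracted; inactive controls average about 0.047.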
# 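Also: Bxb1 expression induced with 0.2% (w/v) L-rhamnose at OD600 near 0.5, cultures sampled hourly, flipped fraction per protease–substrate barcode pair counted by paired-end Illumina sequencing.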
Variant,area with substrate EALYFQS,area with substrate ECLYFQS,area with substrate EDLYFQS,area with substrate EELYFQS,area with substrate EFLYFQS,area with substrate EILYFQS,area with substrate EKLYFQS,area with substrate ELLYFQS,area with substrate ESLYFQS,area with substrate EWLYFQS,area with substrate EYLYFQS,area with substrate EGLYFQS,area with substrate EHLYFQS,area with substrate EMLYFQS,area with substrate EQLYFQS,area with substrate ERLYFQS,area with substrate EVLYFQS,area with substrate ETLYFQS,area with substrate EPLYFQS
MGESLFKGPRDYNPISSSICHLTNESDGHTTSLYGIGFGPFIITNKHLFRRNNGTLVVQSLHGVFKVKDTTTLQQHLVDGRDMIIIRMPKDFPPFPQKLKFREPQREERICLVTTNFQTKSMSSMVSDTSCTFPSGDGIFWKHWIQTKDGQCGSPLVSTRDGFIVGIHSASNFTNTNNYFTSVPKNFMELLTNQEAQQWVSGWRLNADSVLWGGHKVFEVKPEEPFQPVKEATQL [M219E],0.0826,0.0437,0.121,0.084,0.11,0.0622,0.0728,0.0261,0.0822,0.075,0.161,–,–,–,–,–,–,–,–
MGESLFKGPRDYNPISSSICHLTNESDGHTTSLYGIGFGPFIITNKHLFRRNNGTLVVQSLHGVFKVKDTTTLQQHLVDGRDMIIIRMPKDFPPFPQKLKFREPQREERICLVTTNFQTKSMSSMVSDTSCTFPSGDGIFWKHWIQTKDGQCGSPLVSTRDGFIVGIHSASNFTNTNNYFTSVPKNFMELLTNQEAQQWVSAWRLNADSVLWGGHKVFMVKPEEPFQPVKEATQL [G202A],0.0956,0.0715,–,0.0813,0.0717,0.081,0.0649,0.0691,0.0741,–,–,0.0646,0.076,0.0819,0.093,0.073,0.0744,–,–
MMESLFKGPRDYNPISSSICHLTNESDGHTTSLYGIGFGPFIITNKHLFRRNNGTLVVQSLHGVFKVKDTTTLQQHLVDGRDMIIIRMPKDFPPFPQKLKFREPQREERICLVTTNFQTKSMSSMVSDTSCTFPSGDGIFWKHWIQTKDGQCGSPLVSTRDGFIVGIHSASNFTNTNNYFTSVPKNFMELLTNQEAQQWVSGWRLNADSVLWGGHKVFMVKPEEPFQPVKEATQL [G2M],0.145,0.127,–,–,–,0.123,0.121,–,0.118,–,–,–,–,0.148,0.155,0.134,0.154,0.16,–
MGESLFKGPRDYKPISSSICHLTNESDGHTTSLYGIGFGPFIITNKHLFRRNNGTLVVQSLHGVFKVKDTTTLQQHLVDGRDMIIIRMPKDFPPFPQKLKFREPQREERICLVTTNFQTKSMSSMVSDTSCTFPSGDGIFWKHWIQTKDGQCGSPLVSTRDGFIVGIHSASNFTNTNNYFTSVPKNFMELLTNQEAQQWVSGWRLNADSVLWGGHKVFMVKPEEPFQPVKEATQL [N13K],0.0984,0.0838,0.11,–,–,0.101,0.0822,–,0.0897,0.0963,–,0.089,–,–,0.112,0.105,0.0636,0.113,0.0893
MGESLFKGPRDYNPISSSICHLTNESDGHTTSLYGIGFGPFIITNKHLFRRNNGTLVVQSLHGVFKVKDTTTLQQHLVDGRDMIIIRMPKDFPPFPQKLKFREPQREERICLVTTNFQTKSMSSMVSDTSCTFPSGDGIFWKHWIQTKDGQCGSPLVSTRDGFIVGIHSASNFTNTNNYFTSTPKNFMELLTNQEAQQWVSGWRLNADSVLWGGHKVFMVKPEEPFQPVKEATQL [V183T],0.0991,–,0.112,0.117,–,0.0823,–,–,0.114,0.0812,0.104,0.133,0.11,–,0.108,0.097,0.0921,–,0.112
MGESLFKGPRDYNPISQSICHLTNESDGHTTSLYGIGFGPFIITNKHLFRRNNGTLVVQSLHGVFKVKDTTTLQQHLVDGRDMIIIRMPKDFPPFPQKLKFREPQREERICLVTTNFQTKSMSSMVSDTSCTFPSGDGIFWKHWIQTKDGQCGSPLVSTRDGFIVGIHSASNFTNTNNYFTSVPKNFMELLTNQEAQQWVSGWRLNADSVLWGGHKVFMVKPEEPFQPVKEATQL [S17Q],0.135,0.125,0.152,–,0.112,0.136,–,0.0944,0.122,0.116,–,0.108,0.122,0.0895,0.134,0.099,0.111,0.124,–
MGESLFKGPRDYNPISSSICHLTNESDGHTTSLYGIGFGPFIITNKHLKRRNNGTLVVQSLHGVFKVKDTTTLQQHLVDGRDMIIIRMPKDFPPFPQKLKFREPQREERICLVTTNFQTKSMSSMVSDTSCTFPSGDGIFWKHWIQTKDGQCGSPLVSTRDGFIVGIHSASNFTNTNNYFTSVPKNFMELLTNQEAQQWVSGWRLNADSVLWGGHKVFMVKPEEPFQPVKEATQL [F49K],0.0576,0.0893,0.0628,0.0533,–,–,0.0648,0.144,0.0481,0.0505,0.0572,0.0592,0.0533,0.0543,0.0571,0.0609,–,–,0.0586
MGESLFKGPRDYNPISSSICHLTNESDGHTTSLYGIGFGPFIITNKHLFRRNNGTLVVQSLHGVFKVKDTTTLQQHLVDGRDMIIIRMPKDFPPFPQKLKFREPQREERICLVTTNFQTKSMSSMVSDTSCTFPSGDGIFWKHWIQTKDGQCGSPLVSTRDGFIVGIHTASNFTNTNNYFTSVPKNFMELLTNQEAQQWVSGWRLNADSVLWGGHKVFMVKPEEPFQPVKEATQL [S169T],0.14,0.108,0.156,0.176,–,0.109,0.0905,0.11,0.118,0.116,0.136,0.101,0.147,0.113,0.139,–,0.115,0.138,0.145
MGESLFKGPRDYNPISSSICHLTNESDGHTTSLYGIGFGPFIITNKHLFRRNNGTLVVQSLHGVFKVKDTTTLQQHLVDGRDMIIIRMPKDFPPFPQKLKFREPQREERICLVTTNFQTKSMSSMVSDTSCTFPSGNGIFWKHWIQTKDGQCGSPLVSTRDGFIVGIHSASNFTNTNNYFTSVPKNFMELLTNQEAQQWVSGWRLNADSVLWGGHKVFMVKPEEPFQPVKEATQL [D137N],0.115,0.0938,0.085,0.11,–,0.0876,0.0678,0.0886,0.0942,0.0981,–,–,0.0701,0.121,0.116,0.112,0.1,0.102,0.113
